# Experimental data as given in the supplement of paper PMC6531468.
# This is one part of the list. Values come from read counts of a selection and are noisy. Each score is taken over the longer molecules that contain the sequence shown.
# Columns and labels:
# Assay in all cases: 6-mer SELEX enrichment z-score vs GST control; IMP3 is the RNA-binding protein IGF2BP3; higher = more enriched by binding
# [1] = system: IMP3 KH1-4; conditions: construct: KH1-4 (164-579); SELEX round: R4
# Method: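 SELEX-seq with GST-tagged IMP3 KH1-4 (Pro164-Lys579) and an N40 RNA pool, round 4. 6-mer z-score of sequence-tag enrichment normalised to the corresponding GST SELEX round; RNA k-mers written as DNA (T for U).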
# [2] = system: IMP3 RRM1-2; conditions: construct: RRM1-2 (1-163); SELEX round: R2
# Chain of IMP3 RRM1-2 (chain, as listed by the source): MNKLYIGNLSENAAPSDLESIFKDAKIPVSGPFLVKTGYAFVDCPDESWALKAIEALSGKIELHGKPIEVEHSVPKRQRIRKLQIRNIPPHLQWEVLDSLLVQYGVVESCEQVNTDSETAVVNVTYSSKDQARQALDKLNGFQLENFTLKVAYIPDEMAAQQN
# Method: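 SELEX-seq with GST-tagged IMP3 RRM1-2 (Met1-Asn163) and an N40 RNA pool, round 2. 6-mer enrichment z-score normalised to GST SELEX. RNA written as DNA (T = U).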
# [3] = biological target: IMP3 full-length (UniProt O00425); conditions: construct: FL IMP3 (1-579); SELEX round: R4
# Chain of UniProt O00425 (O00425 whole entry): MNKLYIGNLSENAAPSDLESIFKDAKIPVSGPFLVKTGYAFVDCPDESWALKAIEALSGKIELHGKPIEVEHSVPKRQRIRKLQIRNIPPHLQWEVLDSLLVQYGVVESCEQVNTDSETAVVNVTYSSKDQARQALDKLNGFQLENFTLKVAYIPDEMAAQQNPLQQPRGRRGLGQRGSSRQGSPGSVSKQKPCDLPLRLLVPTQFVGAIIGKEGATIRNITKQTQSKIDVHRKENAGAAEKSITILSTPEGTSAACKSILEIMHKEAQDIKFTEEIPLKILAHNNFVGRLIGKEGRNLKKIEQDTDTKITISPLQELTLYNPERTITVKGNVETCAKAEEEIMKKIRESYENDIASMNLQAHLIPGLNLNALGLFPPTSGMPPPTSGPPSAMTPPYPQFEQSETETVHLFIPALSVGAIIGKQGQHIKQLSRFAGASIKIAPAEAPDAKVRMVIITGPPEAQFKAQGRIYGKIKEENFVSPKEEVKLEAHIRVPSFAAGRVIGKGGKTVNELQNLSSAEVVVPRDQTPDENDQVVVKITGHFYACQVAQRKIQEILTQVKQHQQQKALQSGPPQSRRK
# Method: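 SELEX-seq with GST-tagged full-length IMP3 and an N40 RNA pool, round 4. Each 6-mer is scored as an enrichment z-score of sequence tags containing it, normalised to the matching GST SELEX round. RNA written as DNA (T = U).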
# [4] = system: IMP3 KH1-2; conditions: construct: KH1-2 (164-376); SELEX round: R4
# Chain of IMP3 KH1-2 (chain, as listed by the source): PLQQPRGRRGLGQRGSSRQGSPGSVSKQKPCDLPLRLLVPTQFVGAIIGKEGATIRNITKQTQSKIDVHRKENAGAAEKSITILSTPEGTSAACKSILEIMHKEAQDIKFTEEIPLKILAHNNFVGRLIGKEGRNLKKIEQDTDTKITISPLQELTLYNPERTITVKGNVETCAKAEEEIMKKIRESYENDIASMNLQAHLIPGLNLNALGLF
# Method: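 SELEX-seq with GST-tagged IMP3 KH1-2 (Pro164-Phe376) and an N40 RNA pool, round 4 (stringent 300/600 mM KCl washes). 6-mer z-score of sequence-tag enrichment normalised to the corresponding GST SELEX round; RNA k-mers written as DNA (T for U).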
# [5] = system: IMP3 KH3-4; conditions: construct: KH3-4 (377-579); SELEX round: R4
# Chain of IMP3 KH3-4 (chain, as listed by the source): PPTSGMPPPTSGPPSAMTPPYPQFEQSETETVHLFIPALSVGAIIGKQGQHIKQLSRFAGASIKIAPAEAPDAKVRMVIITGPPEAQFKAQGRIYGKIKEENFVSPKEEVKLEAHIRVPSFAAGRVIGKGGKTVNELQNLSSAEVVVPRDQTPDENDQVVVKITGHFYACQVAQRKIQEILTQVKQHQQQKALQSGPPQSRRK
# Method: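 SELEX-seq with GST-tagged IMP3 KH3-4 (Pro377-Lys579) and an N40 RNA pool, round 4. 6-mer z-score of sequence-tag enrichment normalised to the corresponding GST SELEX round; RNA k-mers written as DNA (T for U).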
# Chain of IMP3 KH1-4 (chain, as listed by the source): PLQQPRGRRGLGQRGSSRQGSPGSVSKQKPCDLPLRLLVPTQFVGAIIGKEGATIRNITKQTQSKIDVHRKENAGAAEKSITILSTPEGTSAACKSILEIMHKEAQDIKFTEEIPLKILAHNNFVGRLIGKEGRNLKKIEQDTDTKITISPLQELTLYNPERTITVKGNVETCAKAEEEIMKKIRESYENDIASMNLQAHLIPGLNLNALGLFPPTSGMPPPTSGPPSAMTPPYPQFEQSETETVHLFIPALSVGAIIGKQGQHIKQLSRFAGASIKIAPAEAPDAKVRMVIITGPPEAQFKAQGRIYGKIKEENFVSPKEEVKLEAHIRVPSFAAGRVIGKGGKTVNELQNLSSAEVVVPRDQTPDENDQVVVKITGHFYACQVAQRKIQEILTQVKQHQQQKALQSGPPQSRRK
Sequence,6-mer SELEX enrichment z-score [1],6-mer SELEX enrichment z-score [2],6-mer SELEX enrichment z-score [3],6-mer SELEX enrichment z-score [4],6-mer SELEX enrichment z-score [5]
ATAGGA,1.22,0.116,0.248,0.769,1.37
TGTCGT,-0.138,0.371,0.105,-0.147,0.031
CTTCCG,0.089,0.023,-0.167,0.339,-0.394
GATATC,-0.153,-0.02,-0.165,-0.167,-0.113
GTGCAG,0.5,0.142,0.436,0.333,0.247
CTGCTG,0.31,0.121,-0.004,0.314,-0.027
CAAGCC,-1.06,-0.301,-0.434,-0.98,-1.43
TGGAAT,0.444,-0.28,-0.243,0.192,0.549
GACGAC,-1.03,-1.1,-0.644,-1.05,-1.29
TATTTG,0.733,0.302,0.036,0.55,1.03
TCGACA,-0.833,0.127,0.164,-0.824,-0.861
ACGCTC,-0.366,0.1,-0.008,-0.258,-0.602
AAAGAA,0.392,-2.73,-1.74,0.208,1.9
CATGTC,0.57,0.833,0.9,0.232,0.126
TCTCGG,-0.348,0.55,0.316,-0.219,-0.081
GCGATT,-0.285,-0.068,-0.115,-0.245,-0.027
TCGATT,0.047,0.127,-0.15,0.008,0.188
GCATCA,1.7,1.04,3.1,0.947,0.728
ACGTAA,-0.839,-0.904,-1.04,-0.963,-0.568
ATTAGT,0.627,0.329,0.273,0.375,0.748
TTGACA,0.071,-0.255,-0.144,-0.074,0.119
TATGAA,1.38,-0.858,-0.386,0.98,2.09
GTCGAG,-0.539,0.105,0.274,-0.445,-0.207
CTTAGA,-0.126,-0.269,-0.368,-0.196,0.094
AACGCC,-0.877,-1.22,-0.942,-0.665,-1.37

Sequence,6-mer SELEX enrichment z-score [1],6-mer SELEX enrichment z-score [2],6-mer SELEX enrichment z-score [3],6-mer SELEX enrichment z-score [4],6-mer SELEX enrichment z-score [5]
TGTTAA,0.111,-0.207,-0.332,0.034,0.376
ATCTTA,0.27,0.302,0.157,0.142,0.311
GGTAAT,0.197,0.096,0.042,0.134,0.488
TATGTC,0.58,0.244,0.245,0.31,0.488
TCGGTA,0.039,0.458,0.312,0.037,0.133
GATCTA,0.008,-0.134,-0.283,-0.091,0.035
ATCCGG,-0.206,-0.303,0.19,-0.226,-0.378
GATCGT,-0.685,-0.113,-0.363,-0.657,-0.526
GTTGTC,-0.246,0.347,-0.015,-0.214,-0.151
GACATG,0.764,-0.119,0.55,0.421,0.561
TCCATG,0.491,0.124,0.09,0.219,0.061
CTCGTG,-1.05,0.192,-0.479,-0.858,-0.804
CCATGC,-0.254,0.207,0.027,-0.172,-0.658
AAGGCA,1.22,0.419,1.78,0.587,1.38
CACCAA,-0.597,0.801,-0.214,-0.399,-1.39
CCACTA,0.588,0.54,-0.259,0.488,0.119
AAATTT,0.986,-0.615,-0.355,1.04,1.93
TGTTTC,-0.001,0.351,0.054,0.057,0.051
CCGGTA,-0.401,-0.275,-0.162,-0.422,-0.389
CCGAAA,-2.48,-2.52,-2.33,-2.08,-2.42
CCCTAT,0.02,-0.05,-0.406,-0.068,-0.35
AATATC,0.666,-0.022,0.151,0.706,0.781
TAGACG,-0.443,-0.527,-0.317,-0.393,-0.233
ATATGC,1.21,-0.124,0.175,0.878,1.18
AAAACA,-0.157,0.222,-0.687,0.477,1.15

Sequence,6-mer SELEX enrichment z-score [1],6-mer SELEX enrichment z-score [2],6-mer SELEX enrichment z-score [3],6-mer SELEX enrichment z-score [4],6-mer SELEX enrichment z-score [5]
TGTGAC,0.288,-0.49,-0.379,0.001,0.022
CGTGGT,-0.953,0.276,-0.426,-0.814,-0.688
TCCTAA,-0.098,-0.468,-0.678,-0.127,-0.271
ACGAAG,-0.717,-1.41,-0.818,-0.786,-0.546
TTGGAG,-0.124,0.098,-0.091,-0.117,0.025
GGAACT,-0.261,-0.58,-0.421,-0.328,-0.265
CAAGAA,-0.231,-0.875,-0.674,-0.169,0.199
ACCATA,0.924,0.814,0.536,1.07,0.61
CCGGCT,0.011,0.21,0.473,-0.006,0.088
GCCCTG,-0.805,-0.472,-0.505,-0.669,-0.99
ATTCGC,0.61,0.142,0.219,0.508,0.389
ATGTGT,0.592,0.061,-0.154,0.229,0.538
ATGCGG,0.508,-0.026,0.406,0.304,0.612
AGGACT,0.189,-0.415,-0.206,0.095,0.189
CATCGC,0.856,0.614,1.34,0.61,-0.105
TGGGTG,0.058,0.348,0.055,0.143,0.225
CCGGTG,-0.606,-0.344,-0.096,-0.482,-0.528
CCAGGC,0.175,0.302,0.725,0.028,-0.296
GAGGCC,0.104,-0.463,0.336,0.156,0.112
TGATCT,0.197,0.127,-0.1,0.085,0.161
ATGGAT,0.956,-0.128,0.106,0.6,1.08
ATGTTT,0.327,0.129,-0.023,0.221,0.546
ATCTTC,0.535,0.464,0.339,0.402,0.199
CCATAA,0.679,-0.179,-0.005,0.88,0.404
CAATCG,-0.614,0.027,-0.027,-0.762,-0.913

Sequence,6-mer SELEX enrichment z-score [1],6-mer SELEX enrichment z-score [2],6-mer SELEX enrichment z-score [3],6-mer SELEX enrichment z-score [4],6-mer SELEX enrichment z-score [5]
CCCCTT,0.296,-0.32,-0.456,0.32,-0.295
AGTGCG,-0.045,0.045,0.222,-0.107,0.067
CGTATT,-0.533,0.03,-0.378,-0.435,-0.35
ATGATA,2,-0.575,0.172,1.44,2.66
TCGACG,-1.76,-0.087,-0.703,-1.59,-1.55
CGTGGA,-0.906,-0.427,-0.666,-0.931,-0.899
GAACTA,0.245,-1.02,-0.644,0.154,0.578
GTCCGC,0.594,0.005,0.75,0.471,-0.109
GGGGAA,0.717,-0.44,0.087,0.941,0.858
GATAGA,0.874,-0.831,-0.246,0.673,1.24
GCTTCG,-0.424,0.313,-0.054,-0.29,-0.21
CAACAA,0.067,1.77,1.14,0.681,-0.058
CGTCTA,-0.586,0.179,-0.01,-0.428,-0.386
GAGCCG,-1.94,-0.753,-0.752,-1.66,-1.77
TTCATT,1.6,1.41,1.56,1.65,1.43
TCAAAC,-0.619,0.922,0.122,-0.383,-0.911
TAGTAC,-0.281,0.118,-0.116,-0.369,-0.227
TAGGCA,0.848,0.692,1.06,0.527,0.896
CATAAG,0.681,0.428,0.795,0.643,0.856
TTTAAG,0.351,-0.136,-0.226,0.233,0.897
ACCAAT,0.011,0.277,-0.323,-0.056,-0.413
CGTACT,-0.914,-0.148,-0.476,-0.77,-0.784
AAATTC,0.53,-0.31,-0.129,0.83,0.81
CTGCGC,-0.544,0.088,-0.041,-0.37,-0.637
GAAAAC,-1.25,-2.17,-2.08,-1.26,-0.885
